# Values joined by “and” are separate entries in the source; they are usually repeats but may differ in a detail not shown here. Equal values may be shown once. The whole screen tested about 2,700 compounds, of which about 160 (5.9%) showed an effect of 50% or more. This is one part of the list.
# Molecular target: Nonstructural protein 3 (Zika virus) (UniProt A0A024AXB9)
# [1] = PRVABC59, Concentration 15.0 uM, Number of replicates 1.0
# [2] = PRVABC59, Concentration 50.0 uM, Number of replicates 1.0
# [3] = PRVABC59, Concentration 10.0 uM, Number of replicates 1.0
# Sequence of UniProt A0A024AXB9 (A0A024AXB9 as listed by the source): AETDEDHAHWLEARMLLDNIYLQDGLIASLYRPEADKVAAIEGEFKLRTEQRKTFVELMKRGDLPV
smiles,measurement,setting,value
CC[C@H](C)N(Cc1ccccc1)C(=O)c1cc(Cl)ccc1NS(=O)(=O)c1ccc(Oc2ccccc2Cl)cc1,inhibition,[1],23.6%
O=Cc1ccc(N2CCC(C(=O)Nc3cccc(Cl)c3Br)CC2)cc1,inhibition,[2],21%
CC(C)n1cnnc1CCNC(=O)c1cc(Cl)ccc1NS(=O)(=O)c1ccc(Oc2ccccc2Cl)cc1,inhibition,[1],2.16%
CN1CCN(C(=O)c2cc(Cl)ccc2NS(=O)(=O)c2ccc(Oc3ccccc3Cl)cc2)[C@H](c2ccccc2)C1,inhibition,[1],13.2% and 16.2%
O=C1Nc2ccccc2C[C@]12CCCN2,inhibition,"PRVABC59, Concentration 99.5 uM, Number of replicates 2.0, Standard deviation 0.2837885551901611 %",-8.23%
COc1ccc([C@H](C)NC(=O)C2CCN(c3ccc(C=O)cc3)CC2)cc1,inhibition,[3],23.1%
COc1cc2c(cc1OC)CN(C(=O)C1CCN(c3ccc(C=O)cc3)CC1)CC2,inhibition,[2],22.4%
O=Cc1ccc(N2CCC(C(=O)NCc3cccc(OC(F)F)c3)CC2)cc1,inhibition,[3],23.3%
COC(=O)[C@@H](C)NC(=O)c1cc(OC)nc(N2CCNCC2)n1,inhibition,"PRVABC59, Concentration 49.5 uM, Number of replicates 2.0, Standard deviation 1.3123589594507579 %",-3.04%
same,inhibition,"PRVABC59, Concentration 99.01 uM, Number of replicates 2.0, Standard deviation 1.4734111713301623 %",-3.74%
same,inhibition,"PRVABC59, Concentration 198.0 uM, Number of replicates 2.0, Standard deviation 1.229656305960256 %",-2.29%
CC(C)(CO)NC(=O)c1cc(Cl)cc(NC(=O)c2ccc3c(c2)NC(=O)CS3)c1,inhibition,"PRVABC59, Concentration 49.5 uM, Number of replicates 2.0, Standard deviation 3.997653532192617 %",5.15%
same,inhibition,"PRVABC59, Concentration 99.01 uM, Number of replicates 2.0, Standard deviation 0.5148338698042132 %",7.42%
same,inhibition,"PRVABC59, Concentration 198.0 uM, Number of replicates 2.0, Standard deviation 0.09640366671072623 %",15.1%
COc1cc(C(=O)NCC2CC2)nc(N2CCNCC2)n1,inhibition,"PRVABC59, Concentration 49.5 uM, Number of replicates 2.0, Standard deviation 3.6236773803912077 %",-0.874%
same,inhibition,"PRVABC59, Concentration 99.01 uM, Number of replicates 2.0, Standard deviation 3.547504116672014 %",-0.429%
same,inhibition,"PRVABC59, Concentration 198.0 uM, Number of replicates 2.0, Standard deviation 3.8543740562743776 %",-1.35%
CN(CCCCc1ccccc1)C(=O)c1cc(Cl)ccc1NS(=O)(=O)c1ccc(Oc2ccccc2Cl)cc1,inhibition,[1],28.4%
c1ccc2c([C@H]3CCN(Cc4ccon4)C3)c[nH]c2c1,inhibition,"PRVABC59, Concentration 49.5 uM, Number of replicates 2.0, Standard deviation 2.899910202869395 %",-3.85%
same,inhibition,"PRVABC59, Concentration 99.01 uM, Number of replicates 2.0, Standard deviation 1.8938189888494774 %",-1.59%
same,inhibition,"PRVABC59, Concentration 198.0 uM, Number of replicates 2.0, Standard deviation 2.221432806498782 %",1.83%
c1ccc(Oc2cccc(CN3CC[C@H](c4c[nH]c5ccccc45)C3)c2)nc1,inhibition,"PRVABC59, Concentration 49.5 uM, Number of replicates 2.0, Standard deviation 1.718387030901429 %",8.48%
same,inhibition,"PRVABC59, Concentration 99.01 uM, Number of replicates 2.0, Standard deviation 4.990297794195134 %",10.1%
same,inhibition,"PRVABC59, Concentration 198.0 uM, Number of replicates 2.0, Standard deviation 2.6357057708957 %",7.12%
CC(C)(COC(=O)c1cccc(F)c1)NC(=O)c1cc(N)cc(Cl)c1,inhibition,"PRVABC59, Concentration 49.5 uM, Number of replicates 2.0, Standard deviation 1.1247891306000573 %",3.45%
same,inhibition,"PRVABC59, Concentration 99.01 uM, Number of replicates 2.0, Standard deviation 1.4129417390724304 %",5.8%
same,inhibition,"PRVABC59, Concentration 198.0 uM, Number of replicates 2.0, Standard deviation 1.2082537148179389 %",9%
CN(C)CC[C@H]1CCCCN1C(=O)c1cc(Cl)ccc1NS(=O)(=O)c1ccc(Oc2ccccc2Cl)cc1,inhibition,[1],18.4%
COc1ccc(C)cc1NC(=O)CNC(=O)c1cc(Cl)ccc1NS(=O)(=O)c1ccc(Oc2ccccc2Cl)cc1,inhibition,[1],36.8%
CCCCN(CCCC)CCCNC(=O)c1cc(Cl)ccc1NS(=O)(=O)c1ccc(Oc2ccccc2Cl)cc1,inhibition,[1],21.4%
CCOC(=O)c1cc(Cn2cc(C3CCNCC3)c(C)n2)on1,inhibition,"PRVABC59, Concentration 49.5 uM, Number of replicates 2.0, Standard deviation 3.597880558823145 %",-0.431%
same,inhibition,"PRVABC59, Concentration 99.01 uM, Number of replicates 2.0, Standard deviation 3.9852172616025077 %",-1.41%
same,inhibition,"PRVABC59, Concentration 198.0 uM, Number of replicates 2.0, Standard deviation 1.6156285466659275 %",-2.54%
CCN(Cc1cccc(Cl)c1)C(=O)C1CCN(c2ccc(C=O)cc2)CC1,inhibition,[2],25.7%
O=Cc1ccc(N2CCC(C(=O)NCC(=O)NCC(F)(F)F)CC2)cc1,inhibition,[2],14.1%
O=C1CC[C@H](NS(=O)(=O)c2ccc(Oc3ccccc3)cc2)CN1,inhibition,"PRVABC59, Concentration 49.5 uM, Number of replicates 2.0, Standard deviation 1.5561137405269672 %",-0.043%
same,inhibition,"PRVABC59, Concentration 99.01 uM, Number of replicates 2.0, Standard deviation 3.695498054770985 %",1.03%
same,inhibition,"PRVABC59, Concentration 198.0 uM, Number of replicates 2.0, Standard deviation 2.148089661510246 %",4.02%
CN1CCN(C[C@H]2CCCN(C(=O)C3CCN(c4ccc(C=O)cc4)CC3)C2)CC1,inhibition,[2],26.6%
O=C(Nc1cc(Cl)c(Br)cn1)c1cc(Cl)ccc1NS(=O)(=O)c1ccc(Oc2ccccc2Cl)cc1,inhibition,[1],21.5%
COc1ccccc1N1CCN(C(=O)c2cc(Cl)ccc2NS(=O)(=O)c2ccc(Oc3ccccc3Cl)cc2)CC1,inhibition,[1],8.47%
CCCCCC(=O)N[C@H](C(=O)N1CCNCC1)c1ccc(OCc2ccccc2)cc1,inhibition,"PRVABC59, Concentration 49.5 uM, Number of replicates 2.0, Standard deviation 1.7917326625540275 %",4.67%
same,inhibition,"PRVABC59, Concentration 99.01 uM, Number of replicates 2.0, Standard deviation 0.5287703153202195 %",6.96%
same,inhibition,"PRVABC59, Concentration 198.0 uM, Number of replicates 2.0, Standard deviation 2.046607805316139 %",15.5%
CC(C)(C)C1CCC(NC(=O)C2CCN(c3ccc(C=O)cc3)CC2)CC1 (stereo not drawn),inhibition,[2],19.9%
CNC(=O)c1cc(Cl)ccc1NS(=O)(=O)c1ccccc1C#N,inhibition,"PRVABC59, Concentration 49.5 uM, Number of replicates 2.0, Standard deviation 0.40133767512043944 %",-0.968%
same,inhibition,"PRVABC59, Concentration 99.01 uM, Number of replicates 2.0, Standard deviation 0.5142138896626179 %",2.22%
same,inhibition,"PRVABC59, Concentration 198.0 uM, Number of replicates 2.0, Standard deviation 0.5330264726702436 %",6.88%
Cc1cn[nH]c1CNC(=O)[C@]1(c2ccc(F)cc2)CCCNC1,inhibition,"PRVABC59, Concentration 49.5 uM, Number of replicates 2.0, Standard deviation 0.6075306368947093 %",-1.57%
same,inhibition,"PRVABC59, Concentration 99.01 uM, Number of replicates 2.0, Standard deviation 1.8661703506616794 %",-1.53%
same,inhibition,"PRVABC59, Concentration 198.0 uM, Number of replicates 2.0, Standard deviation 3.178641642000431 %",-0.596%
O=Cc1ccc(N2CCC(C(=O)NC3CCN(Cc4ccccc4F)CC3)CC2)cc1,inhibition,[2],30.5%
O=Cc1ccc(N2CCC(C(=O)N[C@H](c3ccccc3)C(F)(F)F)CC2)cc1,inhibition,[3],21.9%
COc1ccccc1CN(C(=O)C1CCN(c2ccc(C=O)cc2)CC1)C1CC1,inhibition,[2],22.9%
COc1cc(C(=O)N[C@@H](C)C(=O)O)nc(N2CCNCC2)n1,inhibition,"PRVABC59, Concentration 49.5 uM, Number of replicates 2.0, Standard deviation 3.0621707227487582 %",-2.42%
same,inhibition,"PRVABC59, Concentration 99.01 uM, Number of replicates 2.0, Standard deviation 2.7922991833774398 %",-4.48%
same,inhibition,"PRVABC59, Concentration 198.0 uM, Number of replicates 2.0, Standard deviation 4.213476922411081 %",-5.18%
Cn1cc(NC(=O)c2ccccc2C(F)(F)F)c(-c2cncnc2)n1,inhibition,"PRVABC59, Concentration 49.5 uM, Number of replicates 2.0, Standard deviation 0.5843407664944392 %",-0.924%
same,inhibition,"PRVABC59, Concentration 99.01 uM, Number of replicates 2.0, Standard deviation 1.1605089640346764 %",-1.59%
same,inhibition,"PRVABC59, Concentration 198.0 uM, Number of replicates 2.0, Standard deviation 1.8442828705639565 %",-2.26%
COc1ncc(Br)cc1NC(=O)c1cc(Cl)ccc1NS(=O)(=O)c1ccc(Oc2ccccc2Cl)cc1,inhibition,[1],22.9%
O=Cc1ccc(N2CCC(C(=O)Nc3ccc(I)cn3)CC2)cc1,inhibition,[2],22.7%
O=C(c1cc(Cl)ccc1NS(=O)(=O)c1ccc(Oc2ccccc2Cl)cc1)N1CCN(S(=O)(=O)N2CCOCC2)CC1,inhibition,[1],12.2%
O=Cc1ccc(N2CCC(C(=O)N3CCC(O)(Cc4ccccn4)CC3)CC2)cc1,inhibition,[2],25%
Cn1cc(CNC(=O)c2ccccc2[C@@H]2CCCNC2)cn1,inhibition,"PRVABC59, Concentration 49.5 uM, Number of replicates 2.0, Standard deviation 1.3820269413959925 %",-1.82%
same,inhibition,"PRVABC59, Concentration 99.01 uM, Number of replicates 2.0, Standard deviation 1.129463511127855 %",-0.227%
same,inhibition,"PRVABC59, Concentration 198.0 uM, Number of replicates 2.0, Standard deviation 0.6425212666298173 %",0.6%
Cc1ccc(CN(CCN(C)C)C(=O)c2cc(Cl)ccc2NS(=O)(=O)c2ccc(Oc3ccccc3Cl)cc2)s1,inhibition,[1],17.7%

# Source: ChEMBL document CHEMBL5606458, “ASAP - ZIKV NS2B-NS3 protease fluorescence single point” (2024)
